{"source": "paper PMC12820563", "note": "Some of the results follow. The list includes weakly bound sequences."}
{"target": "T1, MBP-FoxP3dN (UniProt Q99JB6)", "T1 sequence": "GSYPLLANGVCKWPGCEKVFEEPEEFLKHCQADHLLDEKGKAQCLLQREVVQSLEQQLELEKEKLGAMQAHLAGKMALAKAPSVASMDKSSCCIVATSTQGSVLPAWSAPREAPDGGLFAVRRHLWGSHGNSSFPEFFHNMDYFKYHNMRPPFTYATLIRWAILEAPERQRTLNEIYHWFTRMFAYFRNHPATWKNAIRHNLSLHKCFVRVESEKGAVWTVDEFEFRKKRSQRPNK", "assay": "PD-seq (MBP pull-down with sequencing)", "conditions": "20 mM Tris-HCl pH 7.5, 100 mM NaCl, 1.5 mM MgCl2, 0.4 uM protein, 0.1 uM dsDNA library, 30 min, room temperature, amylose pull-down; high values mean tight binding; double strand, one strand shown"}
{"sequence": "GATGATTGTTCTCCCAGCTGATGAATTCGCCCGATCGAGTAAACAAATTTTCCTAATCTTTCTGTTCAAGCGCCATCTAC", "binding signal (RPM ratio (pull-down/input))": 0.252}
{"sequence": "GATGATTGTTCTCCCAGCTGATGAATTAGATATCTCGAGTAAACAAATTTTCCTAATCTTTCTGTTCAAGCGCCATCTAC", "binding signal (RPM ratio (pull-down/input))": 0.983}
{"sequence": "GATGATTGTTCTCCCAGCTGATGAATTCGTTCATTCGAGTAAACAAATTTTCCTAATCTTTCTGTTCAAGCGCCATCTAC", "binding signal (RPM ratio (pull-down/input))": 0.386}
{"sequence": "GATGATTGTTCTCCCAGCTGATGAATTCACCAGATCGAGTAAACAAATTTTCCTAATCTTTCTGTTCAAGCGCCATCTAC", "binding signal (RPM ratio (pull-down/input))": 0.179}
{"sequence": "GATGATTGTTCTCCCAGCTGATGAATTAAAAACCTCGAGTAAACAAATTTTCCTAATCTTTCTGTTCAAGCGCCATCTAC", "binding signal (RPM ratio (pull-down/input))": 0.269}
{"sequence": "GATGATTGTTCTCCCAGCTGATGAATTGGAAGCTTCGAGTAAACAAATTTTCCTAATCTTTCTGTTCAAGCGCCATCTAC", "binding signal (RPM ratio (pull-down/input))": 0.262}
{"sequence": "GATGATTGTTCTCCCAGCTGATGAATTTCTTCCCTCGAGTAAACAAATTTTCCTAATCTTTCTGTTCAAGCGCCATCTAC", "binding signal (RPM ratio (pull-down/input))": 0.217}
{"sequence": "GATGATTGTTCTCCCAGCTGATGAATTGATTTGGTCGAGTAAACAAATTTTCCTAATCTTTCTGTTCAAGCGCCATCTAC", "binding signal (RPM ratio (pull-down/input))": 2.12}
{"sequence": "GATGATTGTTCTCCCAGCTGATGAATTGAATGGTTCGAGTAAACAAATTTTCCTAATCTTTCTGTTCAAGCGCCATCTAC", "binding signal (RPM ratio (pull-down/input))": 0.743}
{"sequence": "GATGATTGTTCTCCCAGCTGATGAATTGCAATTATCGAGTAAACAAATTTTCCTAATCTTTCTGTTCAAGCGCCATCTAC", "binding signal (RPM ratio (pull-down/input))": 2.5}
{"sequence": "GATGATTGTTCTCCCAGCTGATGAATTATGTTGGTCGAGTAAACAAATTTTCCTAATCTTTCTGTTCAAGCGCCATCTAC", "binding signal (RPM ratio (pull-down/input))": 6.57}
{"sequence": "GATGATTGTTCTCCCAGCTGATGAATTTACTGCGTCGAGTAAACAAATTTTCCTAATCTTTCTGTTCAAGCGCCATCTAC", "binding signal (RPM ratio (pull-down/input))": 0.723}
{"sequence": "GATGATTGTTCTCCCAGCTGATGAATTATCCTACTCGAGTAAACAAATTTTCCTAATCTTTCTGTTCAAGCGCCATCTAC", "binding signal (RPM ratio (pull-down/input))": 0.31}
{"sequence": "GATGATTGTTCTCCCAGCTGATGAATTGCTGGAATCGAGTAAACAAATTTTCCTAATCTTTCTGTTCAAGCGCCATCTAC", "binding signal (RPM ratio (pull-down/input))": 0.374}
{"sequence": "GATGATTGTTCTCCCAGCTGATGAATTTTCATTTTCGAGTAAACAAATTTTCCTAATCTTTCTGTTCAAGCGCCATCTAC", "binding signal (RPM ratio (pull-down/input))": 0.412}
{"sequence": "GATGATTGTTCTCCCAGCTGATGAATTAGTCTTATCGAGTAAACAAATTTTCCTAATCTTTCTGTTCAAGCGCCATCTAC", "binding signal (RPM ratio (pull-down/input))": 0.725}
{"sequence": "GATGATTGTTCTCCCAGCTGATGAATTCCTGGGTTCGAGTAAACAAATTTTCCTAATCTTTCTGTTCAAGCGCCATCTAC", "binding signal (RPM ratio (pull-down/input))": 0.257}
{"sequence": "GATGATTGTTCTCCCAGCTGATGAATTTATGCATTCGAGTAAACAAATTTTCCTAATCTTTCTGTTCAAGCGCCATCTAC", "binding signal (RPM ratio (pull-down/input))": 7.56}
{"sequence": "GATGATTGTTCTCCCAGCTGATGAATTCCAGGTCTCGAGTAAACAAATTTTCCTAATCTTTCTGTTCAAGCGCCATCTAC", "binding signal (RPM ratio (pull-down/input))": 0.374}
{"sequence": "GATGATTGTTCTCCCAGCTGATGAATTTGGTGGTTCGAGTAAACAAATTTTCCTAATCTTTCTGTTCAAGCGCCATCTAC", "binding signal (RPM ratio (pull-down/input))": 2}
{"sequence": "GATGATTGTTCTCCCAGCTGATGAATTTGACGACTCGAGTAAACAAATTTTCCTAATCTTTCTGTTCAAGCGCCATCTAC", "binding signal (RPM ratio (pull-down/input))": 0.407}
{"sequence": "GATGATTGTTCTCCCAGCTGATGAATTTAGGTCATCGAGTAAACAAATTTTCCTAATCTTTCTGTTCAAGCGCCATCTAC", "binding signal (RPM ratio (pull-down/input))": 0.66}
{"sequence": "GATGATTGTTCTCCCAGCTGATGAATTCCTATGCTCGAGTAAACAAATTTTCCTAATCTTTCTGTTCAAGCGCCATCTAC", "binding signal (RPM ratio (pull-down/input))": 0.379}
{"sequence": "GATGATTGTTCTCCCAGCTGATGAATTTGGTCGATCGAGTAAACAAATTTTCCTAATCTTTCTGTTCAAGCGCCATCTAC", "binding signal (RPM ratio (pull-down/input))": 0.337}
{"sequence": "GATGATTGTTCTCCCAGCTGATGAATTGTCGCTCTCGAGTAAACAAATTTTCCTAATCTTTCTGTTCAAGCGCCATCTAC", "binding signal (RPM ratio (pull-down/input))": 0.643}
{"sequence": "GATGATTGTTCTCCCAGCTGATGAATTTTAAAGATCGAGTAAACAAATTTTCCTAATCTTTCTGTTCAAGCGCCATCTAC", "binding signal (RPM ratio (pull-down/input))": 0.2}
{"sequence": "GATGATTGTTCTCCCAGCTGATGAATTGCCCTGGTCGAGTAAACAAATTTTCCTAATCTTTCTGTTCAAGCGCCATCTAC", "binding signal (RPM ratio (pull-down/input))": 0.333}
{"sequence": "GATGATTGTTCTCCCAGCTGATGAATTTAGAAAATCGAGTAAACAAATTTTCCTAATCTTTCTGTTCAAGCGCCATCTAC", "binding signal (RPM ratio (pull-down/input))": 0.236}
{"sequence": "GATGATTGTTCTCCCAGCTGATGAATTTCAACACTCGAGTAAACAAATTTTCCTAATCTTTCTGTTCAAGCGCCATCTAC", "binding signal (RPM ratio (pull-down/input))": 0.617}
{"sequence": "GATGATTGTTCTCCCAGCTGATGAATTCGGTGAATCGAGTAAACAAATTTTCCTAATCTTTCTGTTCAAGCGCCATCTAC", "binding signal (RPM ratio (pull-down/input))": 0.279}
{"sequence": "GATGATTGTTCTCCCAGCTGATGAATTAGTAAGATCGAGTAAACAAATTTTCCTAATCTTTCTGTTCAAGCGCCATCTAC", "binding signal (RPM ratio (pull-down/input))": 0.273}
{"sequence": "GATGATTGTTCTCCCAGCTGATGAATTATTCTTTTCGAGTAAACAAATTTTCCTAATCTTTCTGTTCAAGCGCCATCTAC", "binding signal (RPM ratio (pull-down/input))": 0.326}
